From paper PMC4336329 (PLoS ONE, 2015)
In all, about 310,000 compounds went through this assay and about 2,200 (0.71%) showed an effect of 50% or more. Effects have a minus sign here. The list shows a part of the results.

What follows are compounds tested against human ether-à-go-go-related gene (hERG) potassium channel (human, UniProt Q12809) (assay: primary screen, population patch clamp on CHO cells stably expressing hERG).
human ether-à-go-go-related gene (hERG) potassium channel, sequence (Q12809 whole entry, looked up): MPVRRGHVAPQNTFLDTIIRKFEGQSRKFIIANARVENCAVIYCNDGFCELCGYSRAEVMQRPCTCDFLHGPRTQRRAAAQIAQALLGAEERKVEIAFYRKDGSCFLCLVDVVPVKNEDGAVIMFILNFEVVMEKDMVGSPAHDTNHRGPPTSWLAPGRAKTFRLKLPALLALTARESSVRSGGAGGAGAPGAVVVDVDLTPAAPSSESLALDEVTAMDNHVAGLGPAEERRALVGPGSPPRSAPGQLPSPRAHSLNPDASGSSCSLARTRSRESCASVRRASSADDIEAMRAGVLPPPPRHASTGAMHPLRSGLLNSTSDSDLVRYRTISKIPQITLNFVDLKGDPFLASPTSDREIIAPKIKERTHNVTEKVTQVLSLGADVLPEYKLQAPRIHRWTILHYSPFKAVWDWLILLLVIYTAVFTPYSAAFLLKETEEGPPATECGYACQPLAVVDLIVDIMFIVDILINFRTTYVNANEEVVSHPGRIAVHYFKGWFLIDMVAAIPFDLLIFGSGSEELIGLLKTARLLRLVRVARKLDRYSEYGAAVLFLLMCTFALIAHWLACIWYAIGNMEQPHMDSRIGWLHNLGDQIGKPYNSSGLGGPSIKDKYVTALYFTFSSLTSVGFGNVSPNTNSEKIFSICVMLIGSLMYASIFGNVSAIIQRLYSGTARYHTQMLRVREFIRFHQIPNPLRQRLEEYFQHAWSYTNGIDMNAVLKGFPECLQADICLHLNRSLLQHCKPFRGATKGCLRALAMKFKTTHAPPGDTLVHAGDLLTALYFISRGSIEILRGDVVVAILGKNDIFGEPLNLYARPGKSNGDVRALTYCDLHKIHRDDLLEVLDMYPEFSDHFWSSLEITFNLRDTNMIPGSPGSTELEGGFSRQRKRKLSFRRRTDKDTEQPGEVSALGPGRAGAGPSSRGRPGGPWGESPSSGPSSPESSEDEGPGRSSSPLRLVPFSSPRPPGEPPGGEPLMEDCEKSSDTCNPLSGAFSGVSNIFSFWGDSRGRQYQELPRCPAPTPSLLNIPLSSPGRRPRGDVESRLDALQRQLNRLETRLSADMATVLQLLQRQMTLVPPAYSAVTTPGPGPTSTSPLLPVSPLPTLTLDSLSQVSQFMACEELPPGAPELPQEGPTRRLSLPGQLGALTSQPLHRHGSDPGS

Row | Compound | hERG current change (%, negative = inhibition) at 1uM [%]
1 | CCn1c(COc2ccc3ccccc3c2C)nnc1SCC(=O)Nc1cccc(C(=O)O)c1 | -14.6
2 | Cc1ccsc1CNCc1cc(Cl)ccc1O.Cl | 5.98
3 | COc1cccc(NC2=Nc3cccc4cccc2c34)c1 | 13.9
4 | CC1CC(NS(=O)(=O)c2cccs2)CC(C)(C)C1 (stereo not drawn) | 10.6
5 | CCOc1ccc(NC(=O)CN(C)C(=O)COc2cccc3c2OC(C)(C)C3)cc1OCC | 4.3
6 | CCC1(CC)Cc2ccccc2C(CC(=O)N2CCOCC2)=N1.O=S(=O)(O)O | 1.06
7 | COc1cc(/C=N/NC(=O)c2ccccc2O)ccc1OCC(=O)Nc1ccccc1 | 25.8
8 | COCCn1c(-c2ccc(Br)cc2)csc1=Nc1cccnc1 | 7.48
9 | CC(C(=O)NCC1(c2ccccc2)CCCC1)N1CCCC1.Cl (stereo not drawn) | -3.37
10 | CC(NC(=O)NC(N)=O)(C(F)(F)F)C(F)(F)F | 9.7
11 | C=CCNC(=O)CCCOc1ccc(C)cc1 | 1.88
12 | CCc1cc(C(=O)c2ccc(OC)cc2)c(NC(=O)CN2CCCC2)s1 | 11.6
13 | Cc1ccc(C(=O)c2ccccc2C(=O)OCC(=O)N2C(C)CCCC2C)cc1 (stereo not drawn) | 3.92
14 | COC(=O)C(C)(C)ONC(=O)Nc1ccccc1Cl | 39.7
15 | COc1ccc(N(CC(=O)N2CCN(c3ccccc3F)CC2)S(=O)(=O)c2ccc(C)cc2)cc1 | 13.8
16 | CCOC(=O)C1CCCN(C(=O)c2sc3nc(-c4ccc(OC)cc4)cn3c2C)C1 (stereo not drawn) | -7.95
17 | O=C(NC1CCCCC1)C(=S)NCCc1ccccc1 | 4.31
18 | CCCCC(=O)N1CCN(c2nc3ccc(Br)cc3s2)CC1 | -9.61
19 | COc1ccc(N=Nc2c(C)[nH][nH]c2=O)cc1 | 12.9
20 | CCN1CCCC1CNS(=O)(=O)c1cccc(C(F)(F)F)c1.Cl (stereo not drawn) | 5.04
21 | COc1cccc(/C=N/NC(=S)Nc2cccc(C(=O)O)c2)c1 | 17.3
22 | CCOC(=O)C(=O)NNc1cccc(C)c1C | 10.6
23 | CC1(C)CC2(CCCN(CC(O)(c3ccccc3)c3ccccc3)C2)CCO1.Cl (stereo not drawn) | 5.53

Row | Compound | hERG current change (%, negative = inhibition) at 1uM [%]
24 | CCOc1ccc(NC(=S)N2CCN(c3ccc(N4CCOCC4)nn3)CC2)cc1 | -6.57
25 | O=C(NCCN1C(=O)S/C(=C/c2cccnc2)C1=O)C1=NN(c2ccccc2)C(=O)CC1 | 4.43
26 | CC(CNC(=O)c1ccccc1Cl)c1ccccc1 (stereo not drawn) | 16.1
27 | Cc1cc(C(=O)c2ccc3ccccc3c2)c(C)o1 | 12.2
28 | CCOC(=O)c1ccccc1NC(=O)c1cccs1 | 9.12
29 | Cc1cccc(N(C)S(=O)(=O)c2ccc3c(c2)CCC(=O)N3)c1 | -2.14
30 | Cc1cccc(C2=NN(c3ccc(Br)cc3)[C@@H](C(=O)N3CCOC3=O)[C@@H]2c2ccc(F)cc2)c1 | 20.8
31 | CCN1CCN(C(=O)CN2C(=O)c3cccc4cccc2c34)CC1 | 3.87
32 | COc1ccc(N2CCc3c(C)nc4c(OC)cc(OC)cc4c32)cc1 | -52.7
33 | O=C(NN=C1CCCC1)c1[nH]c2ccc(Br)cc2c1-c1ccccc1 | 11.4
34 | COc1ccc(C2c3[nH]c4ccccc4c3CCN2CCCn2cccn2)c(F)c1 (stereo not drawn) | 9.27
35 | Cc1cccn2c(=O)c3cc(C(=O)NC4CCCC4)c(=N)n(CCCN4CCOCC4)c3nc12 | -77.5
36 | CCO[C@@H]1OC(C(=O)NC2CC2)=C[C@H](C)[C@H]1CCCO | 9.28
37 | CCOC(=O)CNS(=O)(=O)c1cc(-c2nn(C)c(=O)c3ccccc23)ccc1C | 1.3
38 | CCOC(=O)c1ccccc1NC(=O)Cn1cnc2c1c(=O)n(C)c(=O)n2C | 10.8
39 | Cc1nc(-n2nnc(CO)c2CO)nc2c1CCC2 | 11.9
40 | CCN(CC)CCC(=O)Nc1cccc2c1C(=O)c1ccccc1C2=O.Cl | -7.36
41 | Cc1cc(C(F)(F)F)nn1CC(=O)N(C)c1ccccc1 | 13.1
42 | O=C1/C(=C/c2ccccn2)COc2ccccc21 | -1.54
43 | COc1ccc(N2C(=O)C3CCCN3C2c2ccccc2F)cc1 (stereo not drawn) | 6.38
44 | O=C(CCS(=O)(=O)c1ccccc1)Nc1nc2c(s1)COc1ccccc1-2 | 7.29
45 | O=C(Nc1ccc2nn(-c3ccccc3)nc2c1)c1ccc2c(c1)OCO2 | -1.05
46 | CC(C)C(=O)N(Cc1ccc2c(c1)OCO2)Cc1ccccn1.Cl | 2.58

Row | Compound | hERG current change (%, negative = inhibition) at 1uM [%]
47 | O=C1c2cccc3cccc(c23)C(=O)N1/N=C/c1c(O)n(-c2ccccc2)c(=O)[nH]c1=O | -2.72
48 | COc1cc(Nc2ccc(S(N)(=O)=O)cc2)c([N+](=O)[O-])nc1[N+](=O)[O-] | 16
49 | O=[N+]([O-])c1cccc(Nc2nc(Cl)nc(Cl)n2)c1 | 5.7
50 | CCOC(=O)C1CCCN(S(=O)(=O)c2ccc(S(N)(=O)=O)cc2)C1 (stereo not drawn) | 11.8
51 | S=C1NC(c2ccccc2)=NCN1c1ccccc1 | -0.263
52 | CCOc1ccccc1N1CCN(CC(=O)Nc2ncc(C)s2)CC1 | 11.6
53 | Fc1cccc(CN2CCSCC2)c1 | 17.9
54 | CCCn1c(SC(C)C(=O)O)nc2ccccc21 (stereo not drawn) | -4.27
55 | Cc1ccc(-c2nc3ccccc3c(=O)o2)cc1 | 17.4
56 | O=[N+]([O-])c1ccc2c(OCc3nnc(-c4ccccc4Br)o3)ncnc2c1 | -49.8
57 | Cc1oc2cc(O)ccc2c(=O)c1N1C(=O)c2ccccc2C1=O | -0.537
58 | O=c1c(Cc2ccc(Cl)cc2Cl)c(O)ccn1Cc1ccncc1 | 14.8
59 | COc1ccc(C(=O)c2ccccc2)c(O)c1 | -1.73
60 | Cc1ccc(S(=O)(=O)Nc2cccc(C(=O)NCCN3CCOCC3)c2)cc1F | 6.73
61 | CN1CCN(C(c2ccc(C(F)(F)F)cc2)c2ccc3cccnc3c2O)CC1 (stereo not drawn) | 7.36
62 | COc1cc(/C=N/N2CCN(C3c4ccccc4-c4ccccc43)CC2)cc(OC)c1OC | 6.99
63 | Cc1ccc(C(=O)NCC(=O)OCCCOC(=O)CNC(=O)c2ccc(C)c(C)c2)cc1C | 4.69
64 | Cc1ccc(C(=O)Nc2nnc(CC(=O)N/N=C/c3ccncc3)s2)cc1 | 9.31
65 | CCOC(=O)c1ccc(NS(=O)(=O)c2ccc3[nH]c(=O)[nH]c3c2)cc1 | 3.27
66 | CC1CCC2(CC1)NC(=O)N(CC(=O)NCCc1ccc(F)cc1)C2=O (stereo not drawn) | 5.05
67 | O=C(NCc1ccccc1)c1cccc(NS(=O)(=O)c2cccc3cccnc23)c1 | 0.493
68 | CCOC(=O)/C(=N\Nc1cc(Cl)ccc1Cl)N1CCOCC1 | 5.9
69 | O=C(NCC1CCCO1)c1cccc(NC(=O)c2ccc(Br)cc2)c1 (stereo not drawn) | 4.34

Row | Compound | hERG current change (%, negative = inhibition) at 1uM [%]
70 | COc1cc(/C=N/NC(=O)CC2(C)OCCO2)cc(Br)c1O | 6.65
71 | CCOc1ccc(-c2cc(CCCC(=O)NCc3cccnc3)no2)cc1 | 3.17
72 | CN(C)S(=O)(=O)c1cc(NC(=O)CN2CCN(c3ccccc3)CC2)ccc1Cl | -0.733
73 | O=C1C=C(NCc2ccco2)CCC1 | 15.2
74 | Cc1ccc(C)c(N2C(=O)CN=C2Nc2ccccc2Cl)c1.Cl | 8.36
75 | CCn1c(SCC(=O)NC(C)(C)C)nnc1-c1ccoc1C | -9.4
76 | COc1ccccc1N1C(=O)CC(N2CCN(c3ccc(F)cc3)CC2)C1=O (stereo not drawn) | 7.06
77 | O=C(CCNC(=O)c1ccc(Br)cc1)Nc1ccc(S(=O)(=O)Nc2ncccn2)cc1 | 12.8
78 | Cc1ccc(C(=O)O)cc1-c1ccc(C=C2C(=O)c3ccccc3C2=O)o1 | 8.35
79 | CN(C)CCCNC(=O)CCC1CCCCC1 | 3.55
80 | O=C(CNC(=O)N1CC(=O)Nc2ccccc21)Nc1ccc(F)c(Cl)c1 | 24
81 | CN(C)CCCN(Cc1cc2cc3c(cc2[nH]c1=O)OCCO3)C(=O)NC1CCCCC1 | 15.7
82 | c1cncc(-c2csc(-c3cccnc3)n2)c1 | 12.9
83 | Cc1cccc(NC(=O)c2cccc(S(=O)(=O)Nc3ccccc3C(=O)O)c2)c1 | 10.8
84 | CCCCCCCC1CC(=O)C=C(C)C1C(=O)OCC (stereo not drawn) | 3.33
85 | COc1ccc(-c2cc(-c3nnc(COC(=O)C4CC4C)o3)c3ccccc3n2)cc1OC (stereo not drawn) | 1.46
86 | O=C(CCN1C(=O)[C@@H]2Cc3ccccc3CN2C1=O)NCc1ccccc1Cl | 18
87 | COc1ccc(C(N)c2nccc3cc(OC)c(OC)cc23)cc1OC (stereo not drawn) | 8.89
88 | Cc1ccc(-c2[nH]c3ccccc3c2C(C[N+](=O)[O-])c2ccco2)cc1 (stereo not drawn) | 13.6
89 | O=C(NCCN1CCOCC1)c1nn2c(c1Cl)NC(c1ccccc1)CC2C(F)(F)F (stereo not drawn) | -0.737
90 | O=C(c1ccccc1-c1ncc[nH]1)N1CCCC(Nc2ccc(F)cc2)C1 (stereo not drawn) | 8.42
